The results in this text go back to ChEMBL document CHEMBL4888484, “Replenishing the malaria drug discovery pipeline: Screening and hit evaluation of the MMV Hit Generation Library 1 (HGL1) against asexual blood stage Plasmodium falciparum ,using a nano luciferase reporter read-out” (2022).

Each structure is given as a SMILES string. Among all 150,000 compounds or so, about 540 (0.36%) showed an effect of 50% or more. This is one part of the list.

The experiment concerns Plasmodium falciparum. The experiment is described as follows: Primary screen in NF54 nanoGlo assay, in single point, at 2uM, 72h; a lower Z score goes with more inhibition. It is filed as functional, Erythrocyte. The conditions noted are these: timepoint 72 hour.
For orientation: % Inhibition means the change of the read-out against control, counted positive when it falls. `C=CCN1CC[C@H](N(C)C(=O)Nc2ccc(C3CCC3)cc2)C1=O`: the “% Inhibition” value is -5% and the Z score turned out to be 0.65.

Consider `CC1(C)C(NC(=O)c2ccco2)C(C)(C)C1NC(=O)c1ccco1` (stereo unspecified), for which the “% Inhibition” value is recorded as -1% and the Z score is listed as 0.09.

Turning to `CCc1nccn1CC(=O)c1cccc(Cl)c1Cl`, the “% Inhibition” value is given as -1% and the Z score turned out to be 0.09.

Take `Cn1cnn(CC(=O)N2CCCCC2)c1=O`: the “% Inhibition” value is recorded as -4% and the Z score is 0.42.

For the compound `CC(C)CC(C)OCCC(=O)N1CCOCC1C#N` (stereo unspecified), the “% Inhibition” value is -7% and the Z score was 1.04.

On to `CN1CCO[C@@H](CNCCc2ccccc2Cl)C1`, for which the “% Inhibition” value stood at 5% and the Z score is on record as -0.73.

In the case of `CCC(=O)N1CCN(C(=O)NC2CCC(CC)(CC)CC2)CC1`, the “% Inhibition” value was -8% and the Z score is given as 0.9.

`Cn1cnnc1C[C@H]1CCCN(C(=O)NC2CCCCC2)C1`: the “% Inhibition” value is reported as -7% and the Z score was 0.96.

Turning to `O=C(NC1CCCC1)c1cc2n(n1)CCCN(Cc1ccc(Cl)cc1)C2=O`, the “% Inhibition” value is -14% and the Z score amounted to 2.59.

In the case of `C=CCCc1ccccc1NC(=O)N1CCC2OCC(=O)NC2C1` (stereo unspecified), the “% Inhibition” value is -10% and the Z score turned out to be 1.8.

With `CCOC(=O)C1CCN(C(=O)COC(=O)C2CCN(S(=O)(=O)c3ccc(C)c(C)c3)CC2)CC1`, the “% Inhibition” value is -2% and the Z score was 0.22.

With `CC(C)NC(=O)N[C@H]1CCN2C(=O)c3cc(-c4ccccc4F)ccc3NC(=O)[C@@H]2C1`, the “% Inhibition” value stood at 4% and the Z score is recorded as -0.64.

Regarding `CCn1cncc1Cn1cnc(-c2ccccc2)c1-c1cccc(C)n1`, the “% Inhibition” value is -16% and the Z score came out at 2.1.

Take `CN1C(=O)Cc2cc(-c3csc(-c4ccccn4)n3)ccc21`: the “% Inhibition” value is -3% and the Z score came out at 0.27.

`CCCc1sc(C(=O)N(C)CC(N)=O)cc1CC`: the “% Inhibition” value is on record as -16% and the Z score turned out to be 2.

In the case of `COc1ccc(CCN2C(=O)N[C@@H](CC(=O)Nc3cccc(NC(C)=O)c3)C2=O)cc1`, the “% Inhibition” value stood at 18% and the Z score is -2.31.

Take `CC1CN(C(=O)CC2CCCCC2)CCC1NC(=O)OC(C)(C)C` (stereo unspecified): the “% Inhibition” value is on record as -2% and the Z score is 0.23.

Take `Clc1ccc(-c2cc3nnnn3c3ccccc23)cc1`: the “% Inhibition” value was 0% and the Z score is recorded as -0.01.

Take `CCN1CCn2c(nn(CC(=O)N[C@H]3CCc4ccccc43)c2=O)C1=O`: the “% Inhibition” value is -7% and the Z score amounted to 0.75.

Turning to `CCC(NC(C)Cn1ncc2ccccc2c1=O)c1cnn(C)c1` (stereo unspecified), the “% Inhibition” value was 7% and the Z score is -0.69.

Consider `COc1ncccc1CNC(=O)c1cc2c(s1)CCC2`, for which the “% Inhibition” value is -15% and the Z score is on record as 2.7.

`CC(C)c1ncc(-c2ccc(S(=O)(=O)Cl)cc2)o1`: the “% Inhibition” value is listed as -2% and the Z score is on record as 0.29.

As to `CCCc1nc(N2CCCN(C(=O)Nc3ccc(C)cc3)CC2)c2c(-c3ccccc3)noc2n1`, the “% Inhibition” value is recorded as 25% and the Z score is -3.13.

For `CCCCNC(=O)N[C@@H](C)c1cn[nH]c1`, the “% Inhibition” value was 0% and the Z score is -0.03.

For the compound `Cc1cc2c(=O)c(C(=O)c3ccncc3)cn(CC(=O)NC3CCCCC3)c2cc1F`, the “% Inhibition” value was -1% and the Z score worked out at 0.12.

Regarding `CCn1nnc(NCc2ccnn2-c2ccccc2)n1`, the “% Inhibition” value was -6% and the Z score was determined as 1.01.

Consider `N#CCC(=O)N(Cc1ccncc1)C1CC1`, for which the “% Inhibition” value worked out at 15% and the Z score was -1.79.

In the case of `O=C(NCc1ccccc1CN1CCCCCC1)c1cccc[n+]1[O-]`, the “% Inhibition” value came to 2% and the Z score was -0.33.

For `NC(=O)c1coc(CNC(=O)[C@H]2CCCC(F)(F)C2)n1`, the “% Inhibition” value was 2% and the Z score is reported as -0.31.

As for `Cc1nccc(NC(=O)N[C@@H](C)CCCO)c1Cl`, the “% Inhibition” value is recorded as -6% and the Z score came to 0.81.

In the case of `CCCCC(C)C(=O)NC(CO)C1CCCO1` (stereo unspecified), the “% Inhibition” value was -6% and the Z score was found to be 0.74.

With `CN(C)C(=O)c1cncc(N(C)CC(C)(C)CO)n1`, the “% Inhibition” value is on record as -14% and the Z score is 1.42.

For the compound `COc1cc(=O)n(-c2ccccc2)cc1C(=O)N1CCC(n2nccn2)CC1`, the “% Inhibition” value is reported as -14% and the Z score is listed as 1.56.

As for `CCc1cnc(C)nc1N1CCC(n2nccc2NC(=O)C(C)(C)C)CC1`, the “% Inhibition” value is -5% and the Z score turned out to be 1.03.

Regarding `C[C@H](NC(=O)c1cc(C(C)(C)C)on1)c1nc[nH]n1`, the “% Inhibition” value is -11% and the Z score came out at 1.75.

With `N#CCN1CCc2cc(C(=O)Nc3ccccc3)ccc21`, the “% Inhibition” value came out at 11% and the Z score is on record as -2.23.

With `COc1cccc2[nH]cc(C(CC(=O)NC3CCS(=O)(=O)C3)c3ccc(Cl)cc3)c12` (stereo unspecified), the “% Inhibition” value is recorded as -4% and the Z score amounted to 0.47.

Consider `COc1ccc(-c2cc(C(F)(F)F)on2)cc1S(=O)(=O)NCc1ccc(Br)cc1`, for which the “% Inhibition” value turned out to be 0% and the Z score amounted to 0.01.

As for `O=C(NCCc1ccc(F)cc1)[C@H]1NCC12CCOCC2`, the “% Inhibition” value was -20% and the Z score came to 2.58.

For `O=C(NC1=NN2C(=NC(c3ccccc3)=C[C@H]2c2ccccc2)N1)c1ccc(F)cc1`, the “% Inhibition” value is given as -1% and the Z score turned out to be 0.1.

`CC(OCC(F)(F)F)C(=O)NC(C)c1cccs1` (stereo unspecified): the “% Inhibition” value stood at 9% and the Z score is -1.2.

With `Cc1ccc2[nH]c3c(c(=O)c2c1)CN(C(=O)C(F)(F)F)CC3`, the “% Inhibition” value stood at 13% and the Z score is on record as -1.64.

For `C[C@@H](C(=O)Nc1ncccn1)N1CC(C)(C)OC(C)(C)C1`, the “% Inhibition” value is -7% and the Z score was 1.25.
